# ± gives the standard deviation of the averaged measurements. The list shows a part of the results.
# Test system: PfAP2-EXP AP2 domain (GST-tagged)
# Assay: gcPBM binding intensity (ln(normalized median fluorescence intensity)); higher = stronger DNA binding
# In short: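 In this array assay, P. falciparum DNA-binding domains with a GST tag, expressed in E. coli, were applied for 1 h to primer-extended double-stranded 36-bp intergenic genomic probes and negative controls on an Agilent 4 × 180k array. Bound protein was visualised with Alexa488 anti-GST antibody at 488 nm. Binding intensity is the highest Masliner-normalised natural-log median intensity across replicate spots of either probe orientation.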
row,Sequence,gcPBM binding intensity (ln)
1,TAGTACACACAAAATACATGCGGGGTTTAATATTTA [TGCATGCA_site576],8.78 ± 0.45
2,AATTCTTTCATATATTGTACGTATTCCCATAAAATA [XGTACX_site5923],9.03 ± 0.3
3,TTTAAATATTTTAACACACTCATATTTAGGTTACAA [CACACA_site5685],8.43 ± 0.42
4,TCCATATATATTATGTGTACATATTATATATATAAA [XGTACX_site7525],8.36 ± 0.042
5,TTTACATATTTATATACACACTTTTGCGTGTCTGGT [CACACA_site4750],8.49 ± 0.43
6,TAATCCATAAGAAGCACACACATATAAATATATTTT [CACACA_site6774],8.53 ± 0.4
7,ATATATAAAATATATTGTACATTAACATATATATTT [XGTACX_site2055],8.38 ± 0.42
8,GTAATATTATATAGTTGTACTTTTTTTTTATTATAT [XGTACX_site483],8.77 ± 0.46
9,ATATATAAATAAATAGTGCATTTTAATATTTAACGT,8.73 ± 0.14
10,AAACTTGACGGACACACACACACATATATAAAAAAA [CACACA_site4577],8.51 ± 0.38
11,AGTAAAAGAAAGCACACACACATGTATATATGTATG [CACACA_site3858],8.51 ± 0.47
12,CAATATAAAAAACACACGCACACAAAAAAAAAAAAA [CACACA_site3521],8.39 ± 0.49
13,TCTTTATATATATATATATGTGTGAATGTTAAGTAT [XGTACX_negctrl_site135],8.74 ± 0.33
14,ATTTTTTTTTTTTCCTTACACACATATTTCATTTTA [CACACA_site748],8.79 ± 0.64
15,ATATATATATATATAGTGCATAATGTTTTAATAGAT,10.1 ± 0.26
16,AAATTGTCTGCATATAGTACATAAATATATTAATAT [XGTACX_site4557],8.69 ± 0.35
17,CTATTAAAAAAATTATGTACACAACGTCTCTATATA [XGTACX_site4813],8.47 ± 0.35
18,TACATTTTTATTTTTACACACATATATATATATATA [CACACA_site1021],10.1 ± 0.31
19,AAGTATTATTATAAGACACACATGTATATAAGTATA [CACACA_site1479],8.58 ± 0.45
20,TTAAGTATTTTACGTACACACTTATAAATGTACAGG [CACACA_site6012],8.51 ± 0.32
21,TATTATTTTATGAGACATAAAAAAAAAAAAAAAAAA [CACACA_negctrl_site1534],8.02 ± 0.31
22,GAGTTTATTCTTTTTATACACACCTTATTTGATTAA [CACACA_site735],8.72 ± 0.35
23,TATAATATATTTATATGTACTTATTTATTTATATAT [XGTACX_site6519],8.39 ± 0.34

row,Sequence,gcPBM binding intensity (ln)
1,TTGCCATTAATTTATACACACACATTTTAATTTTTT [CACACA_site8150],8.73 ± 0.34
2,TTGTCATTTATAAAATGTACGTGTGTATATATTTAA [XGTACX_site5000],8.49 ± 0.35
3,TCAATAGTTACTAGTACATGCAAAAATAAACCTATA [TGCATGCA_site85],9.12 ± 0.64
4,CAAATATATATGTTCACACATATAATTATTGTGAAA [CACACA_site4190],8.22 ± 0.38
5,AAGAAAATAAAATAAAAAAAAAAATAAAAAAAATAA [TGCATGCA_negctrl_site516],7.91 ± 0.91
6,TTATATTTATGATACACACACGTATATTCACATACA [CACACA_site6354],8.6 ± 0.42
7,AACATTTTTAAATATATAAAAATATATATATATATA [XGTACX_negctrl_site551],10.1 ± 0.35
8,TTTTAAAGCATATCATATAAAGAACATGACATAGGA [CACACA_negctrl_site630],8.61 ± 0.33
9,GTATGTTTAATTTTAGTGCAATTATAAATATTTTAA [GTGCAC_site9531],8.62 ± 0.18
10,TTATTATTTAACATGTGGACACAAAAATTTAAGGGT [XGTACX_site4638],8.8 ± 0.26
11,TTAACTTTTATATAGTGTACAAATAAATGCATACAG [XGTACX_site5958],8.73 ± 0.3
12,ATCACTAACATGTGTTGTACATAAAATTTGTTTGTT [XGTACX_site2207],8.52 ± 0.33
13,AAAAAACAAAAACACACACACACATATATATATATA [CACACA_site3654],9.94 ± 0.36
14,TATTATGTATAAAGAAGTACTTTTTTTTTTTTTTTC [XGTACX_site201],8.15 ± 0.37
15,TGAACACAGACAAATACACACAAAAAAAATAAATAA [CACACA_site4298],8.65 ± 0.53
16,TCTACTACTTAATGGAGTACTAGCTTCATAATATTA [XGTACX_site7030],8.13 ± 0.33
17,TGCAAATTTAACAAAAAAAAAAAAAAAAAAAAAAAA [GTGCAC_negctrl_site64],7.88 ± 0.45
18,GATTATTTAAAATATACATGCGCGCACATATGCATA [TGCATGCA_site630],9.09 ± 0.19
19,TGCATTTTCCTATTTGCATGCAATTAAAATATAGAA [TGCATGCA_site862],10.2 ± 0.24
20,AACATATATACAGTAACACACACAAAAAAATATGAA [CACACA_site9323],8.87 ± 0.46
21,ATGTTTTAATGAGGTTTGCACTATATTTTAATGAAC,8.8 ± 0.42
22,TAGGAGCCGAAACACACACACAAAAAAAAAAAAAAA [CACACA_site1731],8.05 ± 0.46
23,CATATATATAAATACACACACACACCCCTTATAATT [CACACA_site4064],9.3 ± 0.81

row,Sequence,gcPBM binding intensity (ln)
1,TTTTACAATAACAATACACACTATAATATATATATA [CACACA_site4893],9.53 ± 0.19
2,AAAAGAATTTGAAGTCGTACAATATCTATTATATGA [XGTACX_site8275],8.41 ± 0.36
3,AAAAAAAAATAAAAATGTACATATATAATATTATAT [XGTACX_site71],8.7 ± 0.45
4,ATATAATATACTTATTGTACTTATTTAAAATACTAA [XGTACX_site4266],8.24 ± 0.13
5,AAAAAATGGCTAGTTTGTACACAAAAGTTATTGCAT [XGTACX_site5381],8.43 ± 0.33
6,TTTCTCAATTCTTAGAGTACATAAATAAAAAAAAAA [XGTACX_site7639],8.35 ± 0.33
7,AAGATAAAATTATGCACACATACGAATAATTTTAAA [CACACA_site1705],8.52 ± 0.16
8,GAATATATAAGAACAAATATGGCTTAGAAAAAAAAA [TGCATGCA_negctrl_site451],8.47 ± 0.57
9,ATAAAAATGGATGAATATAAAAAAAAAAAAATATAT [CACACA_negctrl_site182],8.55 ± 0.35
10,TACAAAAGTTAAACATGTACTTAATTATATGTTTTT [XGTACX_site2852],8.18 ± 0.34
11,TCAAGTTTATATTAACTATTTATGAAAAAAAAAAGA [CACACA_negctrl_site902],8.16 ± 0.41
12,ATATATTACAAATGGAGTACTAAAAATATTCTATAT [XGTACX_site6669],8.71 ± 0.36
13,TATAAGGCAATAATAGTGCACTAAGATATATAATGA,9.04 ± 0.2
14,TTACACTAAATATGTTCACACATTTTTTCCATCATA [CACACA_site4647],8.62 ± 0.37
15,CTAAAAATTTTAATTGCACACCACGTTGGACTATTT [CACACA_site1489],8.47 ± 0.28
16,CCCATGCATTTTTGCACACACATATATTTATAAATA [CACACA_site6785],8.9 ± 0.49
17,TATATATATGGGTTTACACACAATAATGAATTAAAA [CACACA_site915],8.36 ± 0.28
18,CCCACAGACGGACACACACACACATATATATATATA [CACACA_site4352],10.1 ± 0.34
19,TTAGAATTTAGAGAAGTGCATATTAAGTTACGAATT [GTGCAC_site9861],8.68 ± 0.24
20,AAAAAAAATATATATATTAAAGTTTTAATTTTTATA [CACACA_negctrl_site497],7.88 ± 0.42
21,ATTATATATATATATAGTACTTTTTTTTTTTTTTTT [XGTACX_site8801],8.47 ± 0.23
22,ATAATAATTTTATGCACACAGAAAAATACAAGGTTA [CACACA_site3510],8.64 ± 0.26
23,TTATTGGTTATATAAAGTACATTTGAAATATAATTG [XGTACX_site6553],8.46 ± 0.54

row,Sequence,gcPBM binding intensity (ln)
1,TTTTCTTGGTATATGATTTATCCTAAATAAGTAAAT [CACACA_negctrl_site294],8.37 ± 0.45
2,TTGCCTGACTTGTTCACACATATTTATGATATACAT [CACACA_site5783],8.73 ± 0.37
3,AATTTAAAGTTTTTTTTTTTTTTTTTTTTTTTTTTG [CACACA_negctrl_site1082],7.76 ± 0.56
4,TGTATTATAATATTATGTACTTATAAATTTTATATT [XGTACX_site6432],8.56 ± 0.35
5,ATATTATTATAAAGTGGTACAATAAATGGTATTATA [XGTACX_site391],8.63 ± 0.23
6,TCTCACATTCTTATGGGTACACATGAGAAATTATAA [XGTACX_site6799],8.57 ± 0.26
7,TGGGTGGTAAAAATGTGTACATAAAAAAATAATGTT [XGTACX_site2235],8.95 ± 0.3
8,AATATACACCCGTGTACACAAATATTTACAAAACGT [CACACA_site4786],8.96 ± 0.39
9,GTTACACCAACAAACACACACACACCCACCCACAAA [CACACA_site2427],8.93 ± 0.74
10,AAAAGGAATGAAAATTCACACAACTATAAATACATA [CACACA_site5337],8.55 ± 0.42
11,GGTATTACCTGTTTGTTATGTAGATGTTGCTAGGAT [GTGCAC_negctrl_site736],8.92 ± 0.49
12,TAATTCTTTATAATAACACACATTCATATACAATAA [CACACA_site2499],8.29 ± 0.24
13,ATACCAATAATATACATACACACATAAAGGTTTATA [CACACA_site314],8.43 ± 0.36
14,AAGAAAAACTAAAGAGTTCTGTTCATATCTCTTTGG [TGCATGCA_negctrl_site549],8.24 ± 0.56
15,AAGGAAAAACCATTCGCACACACACCGAATATATAA [CACACA_site8403],8.59 ± 0.3
16,TATATCAAATTCTAAACATGCACAAAAAACTTATAA [TGCATGCA_site510],8.78 ± 0.27
17,TATTTATATAGACACACACACATATATTTATATTTT [CACACA_site7240],8.52 ± 0.45
18,ACTTAAATAATACATACACACATGTACATACAGAAA [CACACA_site1595],8.73 ± 0.15
19,TTTACATTTAATAAAAGTACTTATTTCATATACATA [XGTACX_site659],8.4 ± 0.26
20,ACACATATGACAAATAGTACATAAATATATAAATAT [XGTACX_site7141],8.57 ± 0.49
